# Data: a collection of fitness landscapes (doi:10.1126/science.1257360)
# The list shows a part of the results.
# B1: PhoQ; a variant is named by its letters at X, in order, P23837 (parent)
# chain: MKKLLRLFFPLSLRVRFLLATAAVVLVLSLAYGMVALIGYSVSFDKTTFRLLRGESNLFYTLAKWENNKLHVELPENIDKQSPTMTLIYDENGQLLWAQRDVPWLMKMIQPDWLKSNGFHEIEADVNDTSLLLSGDHSIQQQLQEVREDDDDAEMTHSVAVNVYPATSRMPKLTIVVVDTIPVELKSSYMVWSWFIYVLSANLLLVIPLLWVAAWWSLRPIEALAKEVRELEEHNRELLNPATTRELTSLVRNLNRLLKSERERYDKYRTTLTDLTHSLKTPLXXLQXXLRSLRSEKMSVSDAEPVMLEQISRISQQIGYYLHRASMRGGTLLSRELHPVAPLLDNLTSALNKVYQRKGVNISLDISPEISFVGEQNDFVEVMGNVLDNACKYCLEFVEISARQTDEHLYIVVEDDGPGIPLSKREVIFDRGQRVDTLRPGQGVGLAVAREITEQYEGKIVAGESMLGGARMEVIFGRQHSAPKDE
# Variants of: B1
# Assay: enrichment ratio after two sorts for PhoP signalling (ratio (wild type AVST 3.29)); higher = more functional
# Details: with PhoP (E. coli)
row,Variant,enrichment ratio
1,IVEW,≤ 0.25
2,HDLY,≤ 0.25
3,PFRP,≤ 0.25
4,NITC,≤ 0.25
5,FEDF,≤ 0.25
6,MNSD,≤ 0.25
7,GPAE,≤ 0.25
8,PARC,≤ 0.25
9,IHVT,≤ 0.25
10,QPLC,≤ 0.25
11,NIKQ,≤ 0.25
12,YWKG,≤ 0.25
13,SFYH,≤ 0.25
14,FFYN,≤ 0.25
15,DPYM,≤ 0.25
16,ENLM,≤ 0.25
17,YDRA,≤ 0.25
18,LGFH,0.628
19,GNLS,6.74
20,FMNK,≤ 0.25
21,HVSN,≤ 0.25
22,KEGL,≤ 0.25
23,NLGW,≤ 0.25
24,LTEL,≤ 0.25
25,IQKD,≤ 0.25
26,PTVN,≤ 0.25

row,Variant,enrichment ratio
1,VNNL,≤ 0.25
2,QLPY,≤ 0.25
3,LYCY,≤ 0.25
4,PRER,≤ 0.25
5,RWCR,≤ 0.25
6,WDQD,≤ 0.25
7,FFYP,≤ 0.25
8,MNMG,≤ 0.25
9,IKAP,≤ 0.25
10,SVYC,1.85
11,IVAR,≤ 0.25
12,DEKA,≤ 0.25
13,NMMG,≤ 0.25
14,VSVA,≤ 0.25
15,MHGY,≤ 0.25
16,FPMI,≤ 0.25
17,ITDT,≤ 0.25
18,VWCE,≤ 0.25
19,QKPT,≤ 0.25
20,FWPR,≤ 0.25
21,YEMG,≤ 0.25
22,MFTE,≤ 0.25
23,FMQF,≤ 0.25
24,SPEE,≤ 0.25
25,SAPV,5.29
26,KKKN,≤ 0.25

row,Variant,enrichment ratio
1,QAKG,≤ 0.25
2,DRCI,≤ 0.25
3,WNFD,≤ 0.25
4,VRYM,≤ 0.25
5,SYWQ,≤ 0.25
6,PMVM,≤ 0.25
7,MTIV,≤ 0.25
8,WHID,≤ 0.25
9,WDTM,≤ 0.25
10,RIFF,≤ 0.25
11,EKNC,≤ 0.25
12,YWPV,0.6
13,PDCQ,≤ 0.25
14,LGWR,≤ 0.25
15,QSQY,≤ 0.25
16,TYQQ,≤ 0.25
17,SFWQ,≤ 0.25
18,IWFH,≤ 0.25
19,PHLT,≤ 0.25
20,YGIL,1.43
21,NDMR,≤ 0.25
22,LGYE,≤ 0.25
23,YRYT,≤ 0.25
24,TPPV,≤ 0.25
25,WSLV,5.78
26,TQWA,17.1

row,Variant,enrichment ratio
1,DQYH,≤ 0.25
2,LSYG,≤ 0.25
3,LPFW,≤ 0.25
4,EYGA,≤ 0.25
5,LHVA,≤ 0.25
6,RRKI,≤ 0.25
7,IDTW,≤ 0.25
8,RAVP,≤ 0.25
9,TWLW,≤ 0.25
10,MNHS,1.1
11,QDIN,≤ 0.25
12,TANN,3.35
13,ISMH,≤ 0.25
14,ENYI,≤ 0.25
15,RKKQ,≤ 0.25
16,IHSD,≤ 0.25
17,VGVA,≤ 0.25
18,DFRS,≤ 0.25
19,ACNM,≤ 0.25
20,PVRM,≤ 0.25
21,DNDL,≤ 0.25
22,SWNT,≤ 0.25
23,MSHH,≤ 0.25
24,SKAR,≤ 0.25
25,MGLL,14.3
26,PYQY,≤ 0.25

row,Variant,enrichment ratio
1,WREA,≤ 0.25
2,NYPG,≤ 0.25
3,QIPS,≤ 0.25
4,YLDG,≤ 0.25
5,FSND,≤ 0.25
6,WPVT,≤ 0.25
7,LIHT,≤ 0.25
8,RRVY,≤ 0.25
9,HMPR,≤ 0.25
10,IKLW,≤ 0.25
11,ERWW,≤ 0.25
12,VHVQ,≤ 0.25
13,DQLG,≤ 0.25
14,GPCQ,≤ 0.25
15,LWHM,≤ 0.25
16,LCLW,≤ 0.25
17,MWIS,≤ 0.25
18,PYSR,≤ 0.25
19,KDHP,≤ 0.25
20,VMAY,≤ 0.25
21,AHFV,≤ 0.25
22,KCYH,≤ 0.25
23,QVYQ,≤ 0.25
24,SIDS,≤ 0.25
25,MQLD,≤ 0.25
26,QGWE,14.3

row,Variant,enrichment ratio
1,FWDP,≤ 0.25
2,ERQD,≤ 0.25
3,PFCN,≤ 0.25
4,FKWY,≤ 0.25
5,SYCF,≤ 0.25
6,TANK,≤ 0.25
7,FFTC,≤ 0.25
8,KNLA,≤ 0.25
9,VVFL,≤ 0.25
10,NSPQ,≤ 0.25
11,LTGA,≤ 0.25
12,DPPI,≤ 0.25
13,AGKW,≤ 0.25
14,SMWI,≤ 0.25
15,KGLF,≤ 0.25
16,TEWY,0.326
17,MTMD,≤ 0.25
18,PCHD,≤ 0.25
19,MPWW,≤ 0.25
20,PPAL,≤ 0.25
21,PCVG,≤ 0.25
22,CFAV,≤ 0.25
23,AIVR,8.99
